Measurements taken from the RNAGym collection of RNA variant scans (doi:10.7554/elife.90254).
Read counts are not given, so values of variants with three or more changes are uncertain.

B1: LINE1-mini (parent)
chain: GGCAGAGCUCAACACAGCGUGGCAAAGUGGCUGUGGCUAGACUGCC

Variants of: B1
Assay: self-cleavage, relative activity (ratio to wild type); higher = more cleavage; in vitro, sequencing; the parent is a self-cleaving ribozyme

Variant	self-cleavage
GGCAGAGCUCAACACAGCGUGGCAAAGUGGCUGUGGCUAGCUCGCC	0.04
GGCAGAGCUCAACAAAGCGUGGCGAAGUGACUGUGGCUACACUGAC	0.01
UGCAGAGCGCAUCACAGCGUGGCAAAGUGGCUGUGGCCAGAUUGCC	0
GGCAUGGCUCAACACAGGGUGGCAAAGGGGCUGUGGCUGGACUGAC	0.02
CGCAGAGCUCAACACAGCGUUGCAAAGUGGCUGUGGCUAGACUGGC	0.03
GGCAGAGCUCUACAAAGCGUUGCAAAGUGUCUGUGGCUAGACUGCC	0.01
AGAAGAGCUCGACACAGCGUGGCAAAGUGGCUGUGGCUAGACUGCC	0.77
GGCCGAGCUCAACAAAGCGUGGCAAAGUGGCUGUGGCUCGACUGCC	0
GGCAGAGCUCGACACAGCAUGGCAAAGUGGCUGUGUCUAGACUGCC	0.02
GGCAGGGCUCAACACAGCGUGGCUAAGUGGCUGUGGCUAGCCUGCC	0.06
GGUAGAGCUCACCACAGCGUCGCAAAGUGGCUGUGGCUAGACUGCA	0.03
GGCACAGCUCAACACAGCGUGGCGAAGUGGAUGUGGCUAGACUGCC	0.02
GGCAGAGCUCAACACAGCGUGGCAAGGCGGCUGUGGCUAGUCUGCA	0.2
GGCAAAGCUCAACCCAGCGUGGCACAGUGGCUGUGGCUAGACUGCC	0.06
GCCAGAGCUCAACGCAGCGUGGCAAAGUGGCUGUUGCUCGACUGCC	0.07
GGCAGGGCUCAAUACAGCGUAGCAAAGUGGCUGUGGCUACACUGCC	0.1
GGCAGGGCUAAACACAGCGUGGCAAAGUGGCUGUGGGUAGACUGCC	0
GGCAGAGCUCAACACACCGUGGCAAGGUGGCUGUGGCUAAACUGCC	0.02
GGCAGAGCUCACCACAGAGUGGCAAGGUGGCUGUGGCUAGACUGCC	0.01

Variant	self-cleavage
GGCAGAGUUCAAGACAGGGUGGCAAAGUGGCUGUGGCUAGACUGCC	0.04
GGCAAAGCUGAACGCAGCGUGGCAAAGUGGCUGUGGCUAGACUGCA	0.01
GGCAGCGCUCAACCCAGCGUGGCUAAGUGGCUGUGGCUAGACUCCC	0.02
GGCAGAGCUCAACACAGCGUGACAAACUGGCUCCGGCUAGGCUGCC	0.04
GACAAAGCUCAACACAGCGUGGCAAAGUGGUUGUGGCCAGACUGCC	0.04
GACAGAGCUUAACACAGCGUGGCAAAGGGGCUUUGGCUUGACUGCC	0.03
GGCAGAGCUCCACACAGCGUGGCACAGUGGCUGUGGCUAGUCUGCG	0
GGCAGAUCUCAACACAGGGUGCCAAAGUGGCUGUGGCUAGACUGCC	0.22
GGCAGAGCUCAACUCAACGUAGCAAAGUGGCUGUGGCUAGACUGCC	0.06
GGCAGAGCUCAACACGGCGUGGCAAAAUGGCUGUGGCUAGGCUGCC	0.12
GGCAGUGCUCAACACAGCGUGGUAAAGUGGCUGUGGUUAGACUGCC	0.03
GGCAGAGUUCAACACAACGUGGCAAAGUGGCUGCGGCUAUAAUGCG	0.11
GGCAGAGUUCCACACUGCGUGGCAAAGUGGCUGUGGCGAGACUGCC	0.01
GGCAGAGCUCAACAAACCCUGGCAAAGUGGCUGUGGCUAGACUGCC	0.03
GGCAGAGUUCAACACAGCUUGGCAAAGUGGCUGUGGCUAGUCUGCC	0.04
GGUAGAACUCAACACCGCGUGGCAAAGUGGCUGUGGCUAGACUGCC	0.05
GGCAAAGCUCAACACAGCUUGGCAAAGUGGCUGUAGCUAGACUGCC	0.03
GGCAGAAAUCAACACAGCGUGGCAAAGUGGCUGUGGCUAUACUGCC	0.15
GGCAGUGCUCAACAUAGCGUGGCAAAGUGGCUGUCGCUAGACUGCC	0.18

Variant	self-cleavage
GGUAGAGCUUAACACAGCGCGACAAAGUCGCUGUGCCUAGACUGCC	0.01
GGCAGAGCUCAAUACAGCGUGGUAAAAUGGCGGUGGCUAGACUGGC	0.27
GGCAGAGCUGAACGCAGCGUGGAAAAGUGGCUGUGGCUGGACUGCC	0.02
AGCAGAGCGCAACACAGCGUGGCACAGUGGCUAUGACUAGACUGCC	0.12
GGCAGGGUUUAACACAGCGUGGCAAAGUGGCCGUGGAUAGACUGCC	0.07
CGCAGAGCUCACCACAUCGUAGCACAGUGGCUGUGGGUAGAGUGUC	0
GGCAGAGCUCAACAAAGCGUAGCGAAGUGGCUGAGGCUAGUCUGCC	0.12
GGCAGAGCUCAACACAGCGUGGCAAAGUGCAAGCGUCUAGACCGCC	0.02
GGCAGAUAUCAACACAGCGUGGCAAAGCGGCUGUGUCUAGACUGCC	0.13
GGCAGAGCUCAUCACAGCGUGGCAAAGUGGCUGGCACUAGACUGCC	0.09
GGCAGAGCUCAGCACAGCGUGGCAAAGUGUCUGUGGCUUGACUGCC	0.06
UGCAUAGCUCAACACAGCGUGGCAAAGUGGCUGAGGCUAGACUGCC	0
GGCAGAGCUCAACACAGGGUGGCAAAUUGGUUGUGGCUAGACUGCC	0.04
GGCAGAGCUCGAAACAGCGUGGCAAAGUGGCUUUGGCUAGACUGCG	0.02
GGGACAGCUCAACACUGCGUGGCAAAGUGGCUGUGGCUAGACUGCC	0.17
GGCGGAGCUCAACACAGCGUAGCAAAGUGGCUGUAGCUAGACUGCC	0.08
CGCAGAGCUCAACACAGCGUGGCAGAGUGGCUGUGCCUAGACUGCC	0
GGCAGAGCUCAACACAGCAUGGCCAAGAGGCUGUGGCUAGACUGCC	0.1
